Experimental findings from PubChem BioAssay AID2010 (Broad Institute, 2009) are described below.

The structures appear in SMILES notation. The full ranking holds about 4,100 compounds; the median of “activity change, negative = cytotoxicity” is about -43, and the highest 2% start at about 39. The list shows a part of the results. Results with a measured potency or affinity are listed apart. Where no call is shown, the source marks the result inconclusive.

This experiment in a line: cytotoxicity toward NIH3T3 fibroblasts, dose response, counter-screen, cell-based, ATP luminescence, mouse fibroblasts (AID 2010). Particulars: NIH3T3 viability, ATP luminescence (CellTiter-Glo), 90 h; at 6 µM (top of the series). (The purpose of a counterscreen is to sort out artefacts and off-target activity.)
On to `O=[N+]([O-])c1cccc(-c2ccc(/C=N/NC(=S)Nc3ccccc3)o2)c1`, for which the activity change, negative = cytotoxicity amounted to 31%.
As to `Clc1ccc(/C=C/c2nc3ccccc3[nH]2)c(Cl)c1`, the activity change, negative = cytotoxicity was -44.6%.
As for `CCN(CC)CCn1c(=N)n(CCOc2ccccc2)c2ccccc21`, the activity change, negative = cytotoxicity was -32.6%.
Consider `COc1ccc(/C=C2\SC(=N)N(c3nccs3)C2=O)cc1OC`, for which the activity change, negative = cytotoxicity was -50.3%.
Regarding `Fc1ccc(COc2ccccc2CNCc2ccncc2)cc1`, the activity change, negative = cytotoxicity was 39.3%.
The value for `Cc1c(C(=O)OCC(C)C)[nH]c2c1C(=O)CC(c1cccs1)C2` (configuration not stated) was -66.1%.
For the compound `CC1CCN(CCCNC(=O)c2cc3c(Cl)nc4ccccc4c3s2)CC1`, the activity change, negative = cytotoxicity was -50.2%.
For the compound `Cc1ccc(Nc2nc(N/N=C\c3ccc4c(c3)OCO4)nc(N3CCOCC3)n2)cc1`, the activity change, negative = cytotoxicity was -57.2%.
As to `COc1ccc(N=C2S/C(=C\c3ccc(N4CCOCC4)o3)C(=O)N2CCc2c[nH]c3ccccc23)cc1`, the activity change, negative = cytotoxicity is -40.4%.
Turning to `O=c1c2ccccc2sn1-c1ccccc1`, the activity change, negative = cytotoxicity was -34%.
Consider `COc1cc(C(=O)Oc2ccccc2/C=N/NC(=O)c2ccc(Cl)cc2)cc(OC)c1OC`, for which the activity change, negative = cytotoxicity was -34.8%.
As to `C/C(CC(C)(C)C1CCCCC1)=N\NC(N)=S`, the activity change, negative = cytotoxicity is -46.1%.
`Oc1c(N=NC(=S)Nc2ccccc2F)c2ccccc2n1Cc1ccccc1F`: the activity change, negative = cytotoxicity is -63.2%.
For `CCC1=Nc2cc(C(=O)NCCCOC)ccc2Sc2ccccc21`, the activity change, negative = cytotoxicity was -58.4%.
On to `O=C(CSc1cccc2cccnc12)N/N=C/c1cccnc1`, for which the activity change, negative = cytotoxicity is -41.9%.
With `CCN(CC)CCn1nc2c3c(cccc3c1=O)-c1ccccc1-2`, the activity change, negative = cytotoxicity was -42.1%.
To `Cc1cc(C(=O)Nc2nc(-c3ccccn3)cs2)ccc1[N+](=O)[O-]` belongs -67.5%.
As for `Cc1cc(C)c2c(N)c3cccc(C)c3nc2n1`, the activity change, negative = cytotoxicity is -55.6%.
Consider `O=C(COC(=O)c1ccccc1C(=O)c1ccc(Cl)c([N+](=O)[O-])c1)NC1CC1`, for which the activity change, negative = cytotoxicity was -40%.
With `CC(=O)O[C@@]12CO[C@@H]1C[C@H](O)[C@@]1(C)C(=O)[C@H](O)C3=C(C)[C@@H](OC(=O)[C@H](O)[C@@H](NC(=O)OC(C)(C)C)c4ccccc4)C[C@](O)([C@@H](OC(=O)c4ccccc4)[C@H]21)C3(C)C`, the activity change, negative = cytotoxicity was -50.6%.
Turning to `CCc1ccccc1OCC(=O)Nc1nc(-c2cccnc2)cs1`, the activity change, negative = cytotoxicity was -60.5%.
For `COC(=O)C1=CN(Cc2ccc(OC)c(OC)c2)C=C(C(=O)OC)C1c1cccs1`, the activity change, negative = cytotoxicity is -30.9%.
For the compound `CCCCN(CCCC)S(=O)(=O)c1ccc(NC(=O)c2ccc([N+](=O)[O-])cc2Cl)cc1`, the activity change, negative = cytotoxicity is -36.5%.
As for `COc1ccccc1NS(=O)(=O)c1cc(NC(=O)Nc2ccc(Cl)cc2Cl)ccc1N1CCCCC1`, the activity change, negative = cytotoxicity was -37.5%.
With `O=C(/C(=C/c1cccc(Cl)c1)c1nc2ccccc2[nH]1)c1ccccc1`, the activity change, negative = cytotoxicity was -34.3%.
Consider `O=C(c1cc2nc(-c3ccc(F)cc3)cc(C(F)(F)F)n2n1)N1CCCCC1c1cccnc1` (configuration not stated), for which the activity change, negative = cytotoxicity was -30.1%.
To `CC(=O)O[C@H]1C(=O)[C@@]2(C)C([C@H](OC(=O)c3ccccc3)[C@]3(O)C[C@H](OC(=O)[C@H](O)[C@@H](NC(=O)c4ccccc4)c4ccccc4)C(C)=C1C3(C)C)[C@]1(OC(C)=O)CO[C@@H]1C[C@H]2O` (some centres not stated) belongs -50%; to `O=C(CCC(=O)Nc1ccc(Cl)cc1Cl)N/N=C/c1ccc([N+](=O)[O-])o1`, -52.7%.
Take `COc1cc(C(=O)NNC(=S)NC(=O)c2ccc(Cl)cc2)cc(OC)c1OC`: the activity change, negative = cytotoxicity is -67.5%.
With `O=[N+]([O-])c1ccc(/C=N/NC(=S)Nc2ccc(Cl)cc2Cl)s1`, the activity change, negative = cytotoxicity was -43.5%.
`Oc1c(C(Nc2ccccn2)c2cccnc2)cc(Cl)c2cccnc12` (configuration not stated): the activity change, negative = cytotoxicity was -42.7%.
For the compound `Cc1ccc(NC(=S)/N=C(\N)Nc2nc(C)c3cc(C)c(C)cc3n2)cc1C`, the activity change, negative = cytotoxicity stood at 35.5%.
As for `C/C(=N\NC(=O)c1ccc(Cl)cc1)c1ccc(Br)s1`, the activity change, negative = cytotoxicity is -40.2%.
On to `Cc1cnc(C(=O)Nc2cccc3cccnc23)cn1`, for which the activity change, negative = cytotoxicity was -39.5%.
As to `NC(=S)N/N=C/c1ccccc1OCc1cccc(Cl)c1`, the activity change, negative = cytotoxicity was -56.4%.
`CC(C)CC(=O)O/N=C1\C(=O)N(Cc2ccc(Cl)cc2)c2ccc([N+](=O)[O-])cc21`: the activity change, negative = cytotoxicity was -43.4%.
To `Cc1cc(N/N=C/c2ccc(O)c(C)c2O)nc(-c2ccccc2O)n1` belongs -65.2%.
